Measurements: US12678512B2, “Anti-EGFR antibody-drug conjugate with a cyclic dinucleotide derivative” (DAIICHI SANKYO COMPANY, LIMITED, priority 2020, dated 2026)

Tested on: CT26.WT-hEGFR cells subcutaneously transplanted in BALB/c mouse
Assay: Anti-tumor test (2)
Assay type: in vivo
Conditions: 1.5 mg/kg into the tail vein once on Day 12, FIG. 15
Excerpt: CT26.WT (CRL2638), a mouse colon cancer cell line purchased from American Type Culture Collection, was transduced with the human EGFR gene (NP_005219.2) to establish CT26.WT-hEGFR cells. Specifically, a pLVSIN lentiviral vector (Takara Bio), in which the human EGFR gene was inserted, was constructed. Next, Lenti-X293T cell line (Takara Bio) was transfected with the vector using a Lentiviral High Titer Packaging Mix (Takara Bio). Then, the supernatant was collected, and the CT26.WT was infected therewith. The cells were maintained in medium supplemented with 10 μg/mL puromycin (Thermo Fisher Scientific).
CT26.WT-hEGFR cells were suspended in saline. Ne×t, 3×10^6 cells were transplanted subcutaneously into the right axillary region of each BALB/c mouse (Day 0), and random grouping was conducted after 12 days. […] In addition, the vehicle group was provided in which acetate buffer was administered. The number of mice in each group was 8.

B1: anti-EGFR antibody 2: IgG1 isotype with LALA mutation, produced with reference to WO2002/092771; light chain SEQ ID NO: 11, heavy chain SEQ ID NO: 12 (antibody, listed as Homo sapiens)
heavy: DVQLQESGPSLVKPSQSLSLTCTVTGYSITSDFAWNWIRQFPGNKLEWMGYISYSGNTRYNPSLKSRISITRDTSKNQFFLQLNSVTIEDTATYYCVTAGRGFPYWGQGTLVTVSAASTKGPSVFPLAPSSKSTSGGTAALGCLVKDYFPEPVTVSWNSGALTSGVHTFPAVLQSSGLYSLSSVVTVPSSSLGTQTYICNVNHKPSNTKVDKRV[omitted - human IgG1 Fc with changes]
light: DILMTQSPSSMSVSLGDTVSITCHSSQDINSNIGWLQQRPGKSFKGLIYHGTNLDDEVPSRFSGSGSGADYSLTISSLESEDFADYYCVQYAQFPWTFGGGTKLEIKRTVAAPSVFIFPPSDEQLKSGTASVVCLLNNFYPREAKVQWKVDNALQSGNSQESVTEQDSKDSTYSLSSTLTLSKADYEKHKVYACEVTHQGLSSPVTKSFNRGEC
With B1 the “tumor growth (tumor volume)” value was “tumor growth was not inhibited”.
